Data reported in PubChem BioAssay AID1345083 (National Center for Advancing Translational Sciences (NCATS), 2018).
Out of some 94,000 compounds screened, about 6,200 (6.6%) were called active. Inconclusive results, whose numbers are uncertain, are shown with a selection of clear calls. Calls come from the whole dose curve; as a rule, active = well fitted inhibition curve with a large enough effect; inconclusive = small, poorly fitted or top-dose-only effect; inactive = flat fitted curve, though single readings scatter. Potencies beside an inconclusive call are fits to weak or partial responses and may not hold up.
% is set by controls: 0 for no effect and ±100 for the full control effect; potency is the fitted concentration of half-maximal effect; tags give direction and shape of the fitted curve.

Test: Cytotoxic Profiling in HEK 293 Cell Line of Diverse Libraries Using Quantitative High-Throughput Screening; note: nearly all actives have a fitted effect of over 60% in size
Details: HEK 293 viability, ATP luminescence (CellTiter-Glo), 48-72 h; activity change, negative = cytotoxicity: at 115 µM (top of the series) unless noted; series mostly up to 115 µM
Method in brief: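 ATP-coupled CellTiter-Glo luminescence served as viability read-out, recorded 10 min after reagent addition at room temperature. HEK 293 cells, 250 cells/well, had been incubated with pintool-transferred compound for 48 or 72 hr at 37 degree Celsius.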
For Cc1noc([C@@H]2CNC[C@H]2C(=O)N2CC=C(c3ccccc3)CC2)n1, the Potency was “inactive”. With COc1ccc(-c2cnc([C@@H]3COCCN3Cc3cn(C)c4ccccc34)[nH]2)cc1 the Potency was inconclusive: 20 µM [inhibitor, full curve, poor fit]. With O=C(CCn1ccn2nc3c(c2c1=O)CCCC3)NCCCc1ccccc1 the Potency was “inactive”. For CCC1=Nc2cc(C(=O)NCCC(C)C)ccc2Sc2ccc(Br)cc21, the Potency was inconclusive: 3.98 µM [inhibitor, full curve, poor fit]. In the case of CC1=C[C@@H](CNC(=O)c2cnccn2)[C@H](C(C)C)C[C@H]1Cc1nc2ccccc2[nH]1, the Potency was inconclusive: 56.2 µM [inhibitor, partial curve, poor fit]. For CC(C)C(=O)NCC(=O)N1CCCCCCNC(=O)CC1c1ccccc1 (configuration not stated), the activity change, negative = cytotoxicity was inconclusive: -32.2% [inhibitor]. With Cc1ccc(C(=O)N2C(C(=O)NCc3ccccc3)COC23CCN(C(=O)C2CC2)CC3)cc1 (configuration not stated) the Potency was “inactive”. With CCS(=O)(=O)c1ncc(CN(C)CCOc2ccc(C)cc2)n1Cc1ccccc1 the Potency was inconclusive: 79.4 µM [inhibitor, partial curve, poor fit]. For Cc1noc(C)c1[S+](=O)([O-])NC1CCCN(c2ccc3nnc(-c4ccccc4)n3n2)C1 (configuration not stated), the Potency was inconclusive: 44.7 µM [inhibitor, partial curve, poor fit]. With CC(C)CNC(=O)c1ccc2c(c1)C1(CCN(C)C1)CN2CC1CC1 (configuration not stated) the Potency was inconclusive: 112 µM [inhibitor, single point]. With O=C(c1ccccc1)N1CCCC(C(=O)N2CCC(N3CCOCC3=O)CC2)C1 (configuration not stated) the Potency was “inactive”. For CC(=O)Nc1cccc(C(=O)NCCn2ccn3nc(-c4ccc(F)cc4)cc3c2=O)c1, the Potency was active: 44.7 µM. In the case of O=[S+]([O-])(c1cccs1)N1CCN(c2ccc3nnc(-c4ccccc4)n3n2)CC1, the Potency was “inactive”. For COc1ccc(CN2CCOc3nc(Cc4ccccc4)ncc3C2=O)cc1, the Potency was inconclusive: 100 µM [inhibitor, partial curve, poor fit]. For COc1cccc(OCc2nc(C(=O)N(C)Cc3cnc4ccccn34)co2)c1, the Potency was inconclusive: 25.1 µM [inhibitor, full curve]. In the case of Cn1cccc1-c1noc(C2CCN(C(=O)C3(c4ccccc4)CC3)C2)n1 (configuration not stated), the Potency was inconclusive: 56.2 µM [inhibitor, partial curve, poor fit]. In the case of CCCCNCc1ccc(OCC(O)CN2CCSCC2)c(OC)c1 (configuration not stated), the Potency was “inactive”. In the case of COC1CN(c2ccc(C)cc2)C12CCN(C(=O)Cc1cccc(F)c1)CC2 (configuration not stated), the Potency was inconclusive: 56.2 µM [inhibitor, partial curve, poor fit]. In the case of Cc1ccc(C(=O)N2CCC3(CC2)NC(=O)N(Cc2ccccc2)C3=O)cc1F, the Potency was inconclusive: 89.1 µM [inhibitor, single point]. For COc1cc(CNC(=O)c2cnc3c(c2)N(c2ccccc2OC)CCC3)cc(OC)c1, the Potency was inconclusive: 100 µM [inhibitor, partial curve]. In the case of COc1ccc(-c2n[nH]c3c2CC(=O)N(CC2CCOCC2)C3)cc1F, the Potency was inconclusive: 126 µM [inhibitor, single point]. With COc1ccc(-c2ccc(C(=O)NCc3cccc(C(F)(F)F)c3)c(Cl)c2)nn1 the Potency was inconclusive: 56.2 µM [inhibitor, partial curve, poor fit]. With O=C1Nc2ccc(-c3ccc4c(c3)OCO4)cc2C(=O)N2CCN(C(=O)COc3ccccc3)C[C@H]12 the Potency was inconclusive: 44.7 µM [inhibitor, partial curve, poor fit]. In the case of COCC(=O)N[C@@H]1C=C[C@@H](c2c(C)nn(-c3ccc(C(C)(C)C)cc3)c2C)C1, the Potency was active: 39.8 µM. In the case of COc1ccc(-c2cnc3n[nH]c(-c4ccccc4C)c3n2)cn1, the Potency was active: 31.6 µM. In the case of Cc1cc2nc3n(c(=O)c2n1CC(=O)Nc1ccc(F)c(F)c1)CCC3, the Potency was inconclusive: 39.8 µM [inhibitor, partial curve, poor fit]. For COc1ccc(OC)c(CN2CCc3ncc(C(=O)Nc4ccccc4)n3CC2)c1, the Potency was active: 112 µM. In the case of CC(C)CC(=O)N1C(C(=O)NCC2CCCO2)COC12CCC(C)CC2 (configuration not stated), the Potency was “inactive”. In the case of O=C(NCc1ccc(Cl)cc1)c1c[nH]c2ncccc12, the Potency was inconclusive: 112 µM [inhibitor, partial curve, poor fit]. For COCC1CCCCN1c1ccc(C(=O)NCCCc2ccccn2)cn1 (configuration not stated), the Potency was “inactive”. For CC1=C[C@@H](CNC(=O)NC(C)C)[C@H](C(C)C)C[C@H]1Cc1nnc(-c2ccccc2F)o1, the Potency was active: 79.4 µM. With C[C@H]1[C@@H]2[C@@H](O)C([C@H](C)C(=O)N(C)Cc3ccccc3)CC[C@@]2(C)CC[C@@H]1NC(=O)Cc1ccccc1 (some centres not stated) the Potency was inconclusive: 56.2 µM [inhibitor, partial curve, poor fit]. For COC(=O)c1ccc2nc(CO[C@H]3CN(Cc4cccnc4)C[C@H]3F)[nH]c2c1, the Potency was “inactive”. For CC(C)COC(=O)N1C[C@@H](CO)[C@@H]2Oc3ccc(Cl)cc3[C@@H]21, the Potency was inconclusive: 28.2 µM [inhibitor, full curve, poor fit]. For CC(C)NC(=O)C1CCCN(Cc2cccc(-c3ccc(F)cc3F)c2)C1 (configuration not stated), the Potency was active: 35.5 µM. For Cn1ncc(N2CCCC(CC(=O)N3CCSCC3)C2)cc1=O (configuration not stated), the Potency was “inactive”. For Cc1ccccc1-n1nc(C)c([C@H]2C=C[C@@H](OC(=O)NC(C)C)C2)c1C, the Potency was inconclusive: 70.8 µM [inhibitor, partial curve, poor fit]. For Cn1ccnc1C(=O)N1CCC(Cc2ccc(CCC(=O)N3CCCC3)cc2)CC1, the Potency was active: 39.8 µM. In the case of Cc1ccc(C2NC(=O)N(CC(=O)Nc3ccc(Br)cc3F)C3=C2C(=O)OC3)cc1 (configuration not stated), the Potency was active: 35.5 µM. In the case of O=C(c1cccc(C(F)(F)F)c1)N1CCN(C2CCN(Cc3cccnc3)C2=O)CC1 (configuration not stated), the Potency was inconclusive: 100 µM [inhibitor, single point]. In the case of CC(C)NC(=O)CCC1CCN(C(=O)c2ccccc2F)CC1, the Potency was “inactive”. In the case of COc1ccccc1Nc1ccnc(N2CCN(C(=O)N(C)C)CC2)n1, the Potency was inconclusive: 79.4 µM [inhibitor, partial curve, poor fit].
